Test results from PubChem BioAssay AID1461 (National Center for Advancing Translational Sciences (NCATS), 2008).
About 2,300 (1%) of roughly 220,000 compounds were called active. This list was built around the results that the source calls inconclusive (neither active nor inactive); the mix of calls is not that of the screen. Calls come from the whole dose curve; as a rule, active = well fitted inhibition curve with a large enough effect; inconclusive = small, poorly fitted or top-dose-only effect, or effect the other way; inactive = no such curve, though single readings can be large or run the other way. No potency is given beside an inconclusive call; the fits are too rough.

Target: Neuropeptide S receptor (Homo sapiens) (UniProt Q6W5P4)
Test: qHTS Assay for Antagonists of the Neuropeptide S Receptor: cAMP Signal Transduction; note: nearly all actives have a fitted effect of over 50% in size
Details: CHO-NPSR cells, cAMP TR-FRET, antagonist mode; series mostly up to 38.3 µM
Potency is the fitted concentration of half-maximal effect; tags give direction and shape of the fitted curve.

UniProt Q6W5P4, sequence (Q6W5P4 whole entry, looked up): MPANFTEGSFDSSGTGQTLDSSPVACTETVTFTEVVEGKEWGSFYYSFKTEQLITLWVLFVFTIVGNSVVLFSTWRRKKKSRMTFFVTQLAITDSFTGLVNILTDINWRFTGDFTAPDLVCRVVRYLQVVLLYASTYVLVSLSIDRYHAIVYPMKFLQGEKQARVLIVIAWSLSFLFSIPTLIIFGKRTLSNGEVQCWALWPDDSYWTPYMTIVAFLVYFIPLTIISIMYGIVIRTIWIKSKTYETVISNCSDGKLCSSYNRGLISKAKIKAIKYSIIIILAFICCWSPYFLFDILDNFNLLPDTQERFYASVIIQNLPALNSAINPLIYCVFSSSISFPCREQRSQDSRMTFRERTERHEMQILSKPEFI

SMILES	Potency
CCOc1cc(C=C2C(=O)NC(=O)NC2=O)ccc1OCC(=O)N1CCOCC1	inactive
NC(CCCCCP(=O)(O)O)C(=O)O (stereo not given)	inconclusive [activator, single point]
CN1CCc2nc3sc(C#N)c(N)c3c(-c3cccs3)c2C1	active: 12.6 µM
CCCCCc1nc2c(c(=O)c3ccccc3n2C)c(=O)n1C1CCCCCC1	active: 10 µM
CN1CCc2cccc(Cl)c2CC1	inconclusive [inhibitor, single point]
O=[N+]([O-])c1ccc(-c2ccccc2)c([As](=O)(O)O)c1	inactive
O=C(c1ccco1)c1cn(Cc2ccc(Cl)cc2)c2ccccc12	inconclusive [inhibitor, single point]
CN[C@@H](C)[C@H](O)c1ccccc1	inconclusive [inhibitor, partial curve]
Cc1ccc(N2C(=O)NC(=O)/C(=C\C=C\c3ccco3)C2=O)cc1	inconclusive [inhibitor, single point]
Cc1cccc(NC(=O)CSc2nnc([C@@H](N)Cc3c[nH]c4ccccc34)o2)c1C	inconclusive [inhibitor, single point]
CCCn1c(C(=O)c2ccccc2OC)nc2ccccc21	inconclusive [activator, single point]
c1ccc(-c2ccc(C(c3ccccc3)n3ccnc3)cc2)cc1 (stereo not given)	inconclusive [inhibitor, single point]
CCC(=NCc1cc(OC)cc(OC)c1)c1c(O)n(C)c(=O)n(C)c1=O	inconclusive [inhibitor, single point]
O=c1[nH]c(=O)n(Cc2ccccc2)c(O)c1C=NCCN1CCNCC1	inactive
c1ccc2c(c1)CC1CNCc3cccc(c31)S2 (stereo not given)	inconclusive [inhibitor, single point]
CCCCn1c(O)c(C(=O)/C=C/c2c[nH]c3ccccc23)c(=O)[nH]c1=O	inconclusive [inhibitor, single point]
CCN1CCN(S(=O)(=O)c2cnc(Cl)c(Br)c2)CC1	inactive
O=C(OCCCCN1C(=O)c2ccccc2C1=O)c1ccc(Br)o1	inconclusive [inhibitor, partial curve]
CCN(CC)c1ccc(C=C2C(=O)NC(=S)NC2=O)cc1	inconclusive [activator, single point]
COc1ccc(C(=O)Oc2cccc3cccnc23)cc1S(=O)(=O)N1CCOCC1	inconclusive [inhibitor, single point]
